Experimental data as given in the supplement of paper PMC3334620.
Whole data set: some 33,000 sequences, median “E-score (-0.5 to 0.5)” near -0.053, cut for the highest 2% near 0.37. Some of the results follow.

Target: Hap1 (UniProt P0CE41)
Experiment: PBM E-score (8-mer binding enrichment) (E-score (-0.5 to 0.5)); higher = stronger / more preferred TF binding; most listed sequences are background and not binding sites
Settings: protein concentration: 200 nM; construct: GST-DNA-binding domain
In short: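 E-scores (a modified Wilcoxon-Mann-Whitney statistic) were assigned by the Universal PBM Analysis Suite to every ungapped eight-base word pooled with its reverse complement. The input came from universal all-10-mer Agilent arrays made double-stranded by primer extension and probed with GST-tagged yeast transcription factors at about 100-200 nM. Fluorescent anti-GST detected bound protein, and masliner normalised the scans.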

UniProt P0CE41, sequence (P0CE41 whole entry): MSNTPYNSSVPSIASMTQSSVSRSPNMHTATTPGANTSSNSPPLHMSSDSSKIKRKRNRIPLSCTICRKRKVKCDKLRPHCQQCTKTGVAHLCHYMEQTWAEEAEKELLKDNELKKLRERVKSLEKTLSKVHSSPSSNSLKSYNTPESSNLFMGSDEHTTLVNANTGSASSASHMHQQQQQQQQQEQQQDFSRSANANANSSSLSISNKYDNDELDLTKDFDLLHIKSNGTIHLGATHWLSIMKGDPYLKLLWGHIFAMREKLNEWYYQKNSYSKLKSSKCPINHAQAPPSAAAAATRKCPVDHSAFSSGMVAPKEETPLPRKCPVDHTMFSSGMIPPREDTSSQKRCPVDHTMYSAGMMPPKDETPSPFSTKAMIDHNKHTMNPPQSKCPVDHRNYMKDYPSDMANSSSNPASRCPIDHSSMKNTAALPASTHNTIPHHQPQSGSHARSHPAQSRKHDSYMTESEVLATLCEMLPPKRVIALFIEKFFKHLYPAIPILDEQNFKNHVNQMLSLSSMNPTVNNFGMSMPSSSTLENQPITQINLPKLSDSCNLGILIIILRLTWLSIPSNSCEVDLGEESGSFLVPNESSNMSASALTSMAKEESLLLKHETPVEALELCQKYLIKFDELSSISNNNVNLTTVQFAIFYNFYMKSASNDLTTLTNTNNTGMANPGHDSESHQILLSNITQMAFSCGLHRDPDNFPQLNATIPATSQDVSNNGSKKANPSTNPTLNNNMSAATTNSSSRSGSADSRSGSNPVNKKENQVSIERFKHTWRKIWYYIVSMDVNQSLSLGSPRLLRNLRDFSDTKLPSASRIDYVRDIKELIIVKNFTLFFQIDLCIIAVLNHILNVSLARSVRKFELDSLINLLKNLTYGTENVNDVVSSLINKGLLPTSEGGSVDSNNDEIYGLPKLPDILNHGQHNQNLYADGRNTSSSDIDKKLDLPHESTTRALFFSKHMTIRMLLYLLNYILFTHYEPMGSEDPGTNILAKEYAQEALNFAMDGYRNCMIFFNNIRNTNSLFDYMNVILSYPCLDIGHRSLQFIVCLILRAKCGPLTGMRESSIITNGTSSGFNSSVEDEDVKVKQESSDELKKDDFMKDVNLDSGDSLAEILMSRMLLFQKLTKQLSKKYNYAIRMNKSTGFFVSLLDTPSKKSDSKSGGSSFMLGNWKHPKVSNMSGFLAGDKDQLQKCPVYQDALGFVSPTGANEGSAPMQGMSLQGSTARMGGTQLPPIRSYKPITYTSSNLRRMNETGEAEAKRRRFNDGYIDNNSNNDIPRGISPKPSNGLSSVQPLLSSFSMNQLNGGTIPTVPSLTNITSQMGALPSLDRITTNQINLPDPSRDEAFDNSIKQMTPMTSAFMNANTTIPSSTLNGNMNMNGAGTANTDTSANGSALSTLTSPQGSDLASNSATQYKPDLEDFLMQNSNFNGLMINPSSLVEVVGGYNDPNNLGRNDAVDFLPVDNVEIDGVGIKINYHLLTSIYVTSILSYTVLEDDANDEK

Row | Sequence | PBM E-score
1 | ACATTAAC | -0.00477
2 | AGTTCCGC | 0.278
3 | ACGAGGAT | -0.248
4 | CTCCTTAC | -0.144
5 | AGCGTCCT | -0.288
6 | GTTTTTCA | -0.0668
7 | GAAAACCA | -0.0432
8 | ATCGCATA | 0.124
9 | ATGGGATA | -0.118
10 | TGACTCAA | -0.251
11 | ATCCAAAT | -0.0458
12 | GCGGGCCC | 0.216
13 | CCCTCTTC | -0.218
14 | ATTCCCAA | -0.0973
15 | ACTGCTCA | -0.177
16 | GGTCCTTA | 0.0379
17 | AGATTCCG | 0.336
18 | CAAAAGGA | -0.125
19 | CGCACATA | 0.105
20 | CCAGGCCG | 0.0209
21 | AGAGAGCT | -0.23
22 | AGTTGGGG | 0.00602
23 | ATTCAAGA | -0.0722
24 | GACGAACA | 0.179
25 | GGCAGAAA | 0.137

Row | Sequence | PBM E-score
26 | CGCTAGTC | -0.203
27 | GTCCTCAC | -0.0706
28 | CTCGTCTA | -0.272
29 | AAGTACAC | -0.08
30 | AAGCAATA | -0.0998
31 | ATAGGCCC | 0.209
32 | AACGGCTA | 0.0898
33 | ATCCAGCA | -0.294
34 | CCGCATAC | 0.153
35 | GGTCAGCA | -0.0216
36 | GCGTATAC | -0.0823
37 | CGTTGTAC | -0.112
38 | AGGAGAAC | -0.106
39 | ATGGAGTA | -0.0136
40 | TAAGCACA | 0.00547
41 | GTGAGGGA | -0.133
42 | CGGGTCCC | 0.117
43 | AATTCTGA | -0.12
44 | GTCCTCAA | -0.128
45 | CAACGTCG | 0.0653
46 | GACGCGGA | 0.133
47 | ATGTGCTC | -0.0449
48 | ATCCCATG | -0.0497
49 | ATACACTC | 0.0362
50 | CTCAAGGC | -0.0737

Row | Sequence | PBM E-score
51 | CATATTAA | -0.184
52 | ACCAAGCA | -0.145
53 | ACAGCCGG | 0.315
54 | AGTTATGC | 0.0344
55 | ACAGCACC | 0.0827
56 | ACCGCCTA | 0.0313
57 | CCATTTTC | 0.0262
58 | GGTTTGGA | -0.178
59 | ATGTCGTG | -0.241
60 | AGTTATAA | -0.15
61 | CTAATTCA | -0.11
62 | CGCATGTA | 0.0504
63 | CGTACAAG | -0.0575
64 | AAGCTCGA | -0.0556
65 | ACTGTTAC | -0.229
66 | CAGTGAAA | -0.0601
67 | ATGTCTGA | -0.225
68 | AGCTGCCA | -0.131
69 | CAAACTAC | -0.155
70 | GCTCCCAC | -0.125
71 | CGTTCCGC | 0.211
72 | CCCACTTA | -0.0913
73 | CGCAACAG | 0.105
74 | CCAGATCG | -0.0037
75 | ATTTTCAA | 0.00636

Row | Sequence | PBM E-score
76 | ACATAGAA | 0.00827
77 | AAGACAAA | -0.142
78 | CAGCGGAC | 0.184
79 | TAAAGGTA | -0.163
80 | CACTAAAG | -0.138
81 | CTTTGATC | -0.0525
82 | ATTACAAC | 0.00988
83 | ATACCTCA | -0.194
84 | CTGGATTC | -0.0302
85 | ACTTCCTC | -0.237
86 | CAGCCCTG | -0.141
87 | CGACGCAG | 0.0463
88 | TCCCGTAA | 0.145
89 | AGAGAAAG | -0.282
90 | AACAGCTG | -0.207
91 | AACTGCAC | -0.18
92 | GCTGAAGA | -0.137
93 | CAGCTACC | -0.096
94 | CAATCCGG | 0.375
95 | ATTGCTCA | -0.281
96 | ATTTGCTC | 0.0183
97 | AGATTGTG | -0.129
98 | CTGGTTTA | -0.309
99 | CACCTAAC | -0.012
100 | TCTCGACA | -0.0465

Row | Sequence | PBM E-score
101 | AGTACACA | -0.00376
102 | GCTTTCGA | -0.173
103 | CAACTGTA | -0.234
104 | CCACTTCG | 0.164
105 | ATTGTTTC | 0.193
106 | ATGTCAGG | -0.163
107 | CCCGAGGA | 0.192
108 | AGGAGGAG | -0.289
109 | CTTTGATA | -0.0983
110 | CGGTGTTC | 0.235
111 | CCATGCTC | -0.219
112 | CAAAAGAA | -0.0306
113 | CTCTGTGC | -0.198
114 | CAAGATTA | -0.0378
115 | CTTGTCTC | -0.073
116 | AAAGCCCC | 0.106
117 | CAAAGCAG | -0.131
118 | AGGGGCGC | 0.00991
119 | AAGGAGCC | -0.142
120 | AAACTTTC | 0.0788
121 | ACAGGCGT | -0.0667
122 | ATCTTTAA | -0.0391
123 | ACTTATAT | 0.0307
124 | CAATCCCA | -0.0601
125 | ATACATGG | -0.134

Row | Sequence | PBM E-score
126 | CGCTTGAA | 0.184
127 | ATCAGAGG | -0.147
128 | ATTAATGA | 0.00222
129 | ACGTGAGG | 0.0362
130 | AAACAATC | -0.152
131 | ACCAGTCG | 0.0172
132 | AATTTACG | 0.253
133 | AAGTCGGC | 0.192
134 | CAGAGAAA | -0.203
135 | ATCGTGTC | 0.224
136 | AGGCGAAT | -0.0348
137 | GGTACGAA | -0.0434
138 | GCTCACAC | -0.206
139 | GAGATGCA | -0.157
140 | ATGCTGGG | -0.113
141 | ACTCTAGA | -0.191
142 | ATCTTGGA | -0.14
143 | GCGGCCGC | 0.289
144 | ACGAAGTC | -0.183
145 | ACACTCAT | -0.164
146 | CCCTAATC | 0.077
147 | ACGAAAGG | -0.0717
148 | CATGCCCA | -0.269
149 | ATAAACGA | 0.0388
150 | CAACGACG | -0.0858

Row | Sequence | PBM E-score
151 | AGCGTGTG | -0.0952
152 | CTGAATCA | -0.308
153 | GCATGGAC | 0.104
154 | CAGACCGG | 0.278
155 | CGAGACAC | 0.00054
156 | GTTGTTTA | -0.146
157 | AGGCCAAC | -0.0286
158 | AGAGGCCG | -0.0391
159 | ATATAAAA | 0.0781
160 | CCGGCACA | 0.262
161 | ACTTATCT | -0.135
162 | ACGGTTTA | -0.0729
163 | ATTGATGC | -0.0271
164 | GCATAACA | -0.266
165 | CGATCGAG | 0.172
166 | CACGAGAA | -0.19
167 | GCGGTTAA | 0.143
168 | GACCTAGC | -0.0274
169 | CTCGTGAA | -0.261
170 | CCATCGGA | 0.342
171 | GCTTTTAC | 0.14
172 | GTGAACGA | -0.202
